# Where two headings read alike, the source gives them in different places.
# B1: Hsp27*-PLPP/AAAA (natural protein)
# chain: not shown
# B2: Hsp27*-D3 (S15D/S78D/S82D on cysteine-free Hsp27*) (natural protein)
# chain: not shown
# B3: Hsp27* (cysteine-less human Hsp27, C137A) (natural protein)
# chain: not shown
# What was measured:
# [1] = target: the molecule itself; assay: SEC
# [2] = target: the molecule itself; assay: SEC; remark: listed apart in the source
protein,measurement,setting,value
B1,binding result,[1],binds
B2,stoichiometry N,[1],2 subunits
B3,stoichiometry N,[2],2 subunits

# — paper PMC6563326 (Structure (London, England : 1993), 2018)
